# Results from the supplement of paper PMC8728848.
# This is one part of the list.
# Tests used:
# Experiment in all cases: glycan array binding signal (z-score within array); higher = stronger binding
# Conditions in all cases: glycan notation: IUPAC condensed, linker removed
# [1] = biological target: Fuc(a1-2)[GalNAc(b1-3)]Gal
# How it was run: (§1)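 From the Consortium for Functional Glycomics database, 3228 arrays were curated, keeping only those whose protein sequence was available. Binding is given as a within-array Z-score averaged across arrays sharing a protein sequence and across linkers. Negative Z-scores can be read as non-binding.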
# [2] = biological target: Fuc(a1-3)GlcNAc
# How it was run: as §1
# [3] = biological target: Fuc(a1-3)[Gal(b1-4)]Glc6S
# How it was run: as §1
# [4] = biological target: Fuc(a1-3)[Gal(b1-4)]GlcNAc
# How it was run: as §1
# [5] = biological target: Fuc(a1-3)[Gal(b1-4)]GlcNAc(b1-2)Man
# How it was run: as §1
# [6] = biological target: Fuc(a1-3)[Gal(b1-4)]GlcNAc(b1-2)Man(a1-3)[Fuc(a1-3)[Gal(b1-4)]GlcNAc(b1-2)Man(a1-6)]Man(b1-4)GlcNAc(b1-4)GlcNAc
# How it was run: as §1
# [7] = biological target: Fuc(a1-3)[Gal(b1-4)]GlcNAc(b1-2)Man(a1-3)[Fuc(a1-3)[Gal(b1-4)]GlcNAc(b1-2)Man(a1-6)]Man(b1-4)GlcNAc(b1-4)[Fuc(a1-6)]GlcNAc
# How it was run: as §1
# [8] = biological target: Fuc(a1-3)[Gal(b1-4)]GlcNAc(b1-3)Gal(b1-3)[Fuc(a1-4)]GlcNAc
# How it was run: as §1
# [9] = biological target: Fuc(a1-3)[Gal(b1-4)]GlcNAc(b1-3)Gal(b1-4)[Fuc(a1-3)]GlcNAc
# How it was run: as §1
# [10] = biological target: Fuc(a1-3)[Gal(b1-4)]GlcNAc(b1-3)Gal(b1-4)[Fuc(a1-3)]GlcNAc(b1-3)Gal(b1-4)[Fuc(a1-3)]GlcNAc
# How it was run: as §1
# [11] = biological target: Fuc(a1-3)[Gal(b1-4)]GlcNAc(b1-3)GalNAc
# How it was run: as §1
# [12] = biological target: Fuc(a1-3)[Gal(b1-4)]GlcNAc(b1-6)GalNAc
# How it was run: as §1
# [13] = biological target: Fuc(a1-3)[Gal(b1-4)]GlcNAc(b1-6)[Gal(b1-3)GlcNAc(b1-3)]Gal(b1-4)Glc
# How it was run: as §1
# [14] = biological target: Fuc(a1-3)[Gal(b1-4)]GlcNAc6S
# How it was run: as §1
# [15] = biological target: Fuc(a1-3)[Gal3S(b1-4)]Glc
# How it was run: as §1
# [16] = biological target: Fuc(a1-3)[Gal3S(b1-4)]GlcNAc
# How it was run: as §1
# [17] = biological target: Fuc(a1-3)[Gal3S(b1-4)]GlcNAc6S
# How it was run: as §1
# [18] = biological target: Fuc(a1-3)[GalNAc(b1-4)]GlcNAc
# How it was run: as §1
# [19] = biological target: Fuc(a1-3)[GalNAc(b1-4)]GlcNAc6S
# How it was run: as §1
# [20] = biological target: Fuc(a1-4)GlcNAc
# How it was run: as §1
# [21] = biological target: Fuc(b1-3)GlcNAc
# How it was run: as §1
# [22] = biological target: Gal(a1-2)Gal
# How it was run: as §1
# [23] = biological target: Gal(a1-3)Gal
# How it was run: as §1
# [24] = biological target: Gal(a1-3)Gal(b1-3)GlcNAc
# How it was run: as §1
# [25] = biological target: Gal(a1-3)Gal(b1-3)GlcNAc(b1-2)Man
# How it was run: as §1
# [26] = biological target: Gal(a1-3)Gal(b1-3)GlcNAc(b1-2)Man(a1-3)[Gal(a1-3)Gal(b1-3)GlcNAc(b1-2)Man(a1-6)]Man(b1-4)GlcNAc(b1-4)GlcNAc
# How it was run: as §1
# [27] = biological target: Gal(a1-3)Gal(b1-3)GlcNAc(b1-3)GalNAc
# How it was run: as §1
# [28] = biological target: Gal(a1-3)Gal(b1-3)GlcNAc(b1-6)GalNAc
# How it was run: as §1
# [29] = biological target: Gal(a1-3)Gal(b1-3)[Fuc(a1-4)]GlcNAc(b1-2)Man(a1-3)[Gal(a1-3)Gal(b1-3)[Fuc(a1-4)]GlcNAc(b1-2)Man(a1-6)]Man(b1-4)GlcNAc(b1-4)GlcNAc
# How it was run: as §1
# [30] = biological target: Gal(a1-3)Gal(b1-4)Glc
# How it was run: as §1
# [31] = biological target: Gal(a1-3)Gal(b1-4)GlcNAc
# How it was run: as §1
# [32] = biological target: Gal(a1-3)Gal(b1-4)GlcNAc(b1-2)Man
# How it was run: as §1
# [33] = biological target: Gal(a1-3)Gal(b1-4)GlcNAc(b1-2)Man(a1-3)[Gal(a1-3)Gal(b1-4)GlcNAc(b1-2)Man(a1-6)]Man(b1-4)GlcNAc(b1-4)GlcNAc
# How it was run: as §1
# [34] = biological target: Gal(a1-3)Gal(b1-4)GlcNAc(b1-3)GalNAc
# How it was run: as §1
# [35] = biological target: Gal(a1-3)Gal(b1-4)GlcNAc(b1-6)GalNAc
# How it was run: as §1
# [36] = biological target: Gal(a1-3)Gal(b1-4)[Fuc(a1-3)]GlcNAc
# How it was run: as §1
# [37] = biological target: Gal(a1-3)Gal(b1-4)[Fuc(a1-3)]GlcNAc(b1-2)Man(a1-3)[Gal(a1-3)Gal(b1-4)[Fuc(a1-3)]GlcNAc(b1-2)Man(a1-6)]Man(b1-4)GlcNAc(b1-4)GlcNAc
# How it was run: as §1
# [38] = biological target: Gal(a1-3)GalNAc
# How it was run: as §1
# [39] = biological target: Gal(a1-3)[Gal(a1-4)]Gal(b1-4)GlcNAc
# How it was run: as §1
# [40] = biological target: Gal(a1-4)Gal(b1-3)GlcNAc(b1-2)Man(a1-3)[Gal(a1-4)Gal(b1-3)GlcNAc(b1-2)Man(a1-6)]Man(b1-4)GlcNAc(b1-4)GlcNAc
# How it was run: as §1
# [41] = biological target: Gal(a1-4)Gal(b1-4)Glc
# How it was run: as §1
# [42] = biological target: Gal(a1-4)Gal(b1-4)GlcNAc
# How it was run: as §1
# [43] = biological target: Gal(a1-4)Gal(b1-4)GlcNAc(b1-2)Man(a1-3)[Gal(a1-4)Gal(b1-4)GlcNAc(b1-2)Man(a1-6)]Man(b1-4)GlcNAc(b1-4)GlcNAc
# How it was run: as §1
# [44] = biological target: Gal(a1-4)Gal(b1-4)GlcNAc(b1-3)Gal(b1-4)Glc
# How it was run: as §1
# [45] = biological target: Gal(a1-4)GlcNAc
# How it was run: as §1
binder,measurement,setting,value
SSR2 (Sclerotium rolfsii) (protein) MVYKITVRVYQTNPDAFFHPVEKTVWKYANGGTWSITDDQHVLTMGGSGTSGTLRFHADNGESFTATFGVHNYKRWCDIVTNLAADETGMVINQQYYSQKNREEARERQLSNYQVKNAKGRNFQIVYTEAEGNDLHANLIIG,glycan array binding signal (z-score),[1],-0.279
same,glycan array binding signal (z-score),[2],-0.29
same,glycan array binding signal (z-score),[3],-0.296
same,glycan array binding signal (z-score),[4],-0.284
same,glycan array binding signal (z-score),[5],-0.272
same,glycan array binding signal (z-score),[6],-0.291
same,glycan array binding signal (z-score),[7],-0.279
same,glycan array binding signal (z-score),[8],-0.29
same,glycan array binding signal (z-score),[9],-0.278
same,glycan array binding signal (z-score),[10],-0.266
same,glycan array binding signal (z-score),[11],-0.293
same,glycan array binding signal (z-score),[12],-0.284
same,glycan array binding signal (z-score),[13],-0.283
same,glycan array binding signal (z-score),[14],-0.279
same,glycan array binding signal (z-score),[15],-0.289
same,glycan array binding signal (z-score),[16],-0.276
same,glycan array binding signal (z-score),[17],-0.279
same,glycan array binding signal (z-score),[18],-0.282
same,glycan array binding signal (z-score),[19],-0.294
same,glycan array binding signal (z-score),[20],-0.281
same,glycan array binding signal (z-score),[21],-0.269
same,glycan array binding signal (z-score),[22],-0.28
same,glycan array binding signal (z-score),[23],-0.283
same,glycan array binding signal (z-score),[24],-0.27
same,glycan array binding signal (z-score),[25],-0.288
same,glycan array binding signal (z-score),[26],-0.262
same,glycan array binding signal (z-score),[27],-0.287
same,glycan array binding signal (z-score),[28],-0.29
same,glycan array binding signal (z-score),[29],-0.267
same,glycan array binding signal (z-score),[30],-0.291
same,glycan array binding signal (z-score),[31],-0.292
same,glycan array binding signal (z-score),[32],-0.26
same,glycan array binding signal (z-score),[33],-0.269
same,glycan array binding signal (z-score),[34],-0.286
same,glycan array binding signal (z-score),[35],-0.281
same,glycan array binding signal (z-score),[36],-0.267
same,glycan array binding signal (z-score),[37],-0.235
same,glycan array binding signal (z-score),[38],-0.276
same,glycan array binding signal (z-score),[39],-0.299
same,glycan array binding signal (z-score),[40],-0.296
same,glycan array binding signal (z-score),[41],-0.29
same,glycan array binding signal (z-score),[42],-0.271
same,glycan array binding signal (z-score),[43],-0.3
same,glycan array binding signal (z-score),[44],-0.285
same,glycan array binding signal (z-score),[45],-0.28
